# According to the supplement of paper PMC7125110:
# ± gives the standard error. Variants at the background level are over-represented here.
# B1: glmS ribozyme (parent)
# chain: AUAAAAGCGCCAGAACUACAGAAAUGUAGUUGACGAGGAGGAGGUUUAUCGAAUUUUCGGCGGAUGCCUCCAAA
# Variants of: B1
# Assay: self-cleavage kobs at 2500 uM GlcN6P; higher = faster cleavage; RNA array
# Settings: with glucosamine-6-phosphate
# In short: (§1)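 Glucosamine-6-phosphate (40 μM to 10 mM) in HEPES/KCl/Mg(OAc)2 buffer was flowed over sequenced MiSeq chips, and tiles were imaged over ~14 h. Barcoded ribozyme variants there had been transcribed in situ by E. coli RNA polymerase and were tracked through a hybridised Cy3 probe at 37 °C. One- or two-exponential decay fits to per-tile medians, normalised to baseline and to non-cleaving reference variants, gave kobs. kcat and KM came from weighted Michaelis–Menten fits across concentrations.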
row,Variant,self-cleavage kobs at 2500 uM GlcN6P [s⁻¹]
1,A14C A15C G38U,< 1e-05
2,A14C A33G G35C G38C G44A A48U C50U,< 1e-05
3,G13A A52C G60A,< 1e-05
4,G32A A64G C68A,< 1e-05
5,C10U A15C G37A A48U,< 1e-05
6,C10G G13U G60A,< 1e-05
7,G7U U46A A48U,< 1e-05
8,A33U G59U G60C C61G,< 1e-05
9,C11G U31C U56C,< 1e-05
10,U31A A33G U45C U57G A64C C71U,< 1e-05
11,A14G C16G A64G U69G,5.19e-05 ± 2.3e-05
12,C10G G41A,< 1e-05
13,U30C C58A,2.92e-05 ± 1.1e-05
14,G9C G37U G40C U45A,< 1e-05
15,C8U C10G U31C,< 1e-05
16,C11U A14C C16A G38U G40A C50G,6.83e-05 ± 2.4e-05
17,G29U A33U G51A G59U,< 1e-05
18,G13C U55G G60A,< 1e-05
19,C10U G32C G38U,< 1e-05
20,A33U G66A,3.2e-05 ± 1e-05
21,A15G U55G C71U,0.00368 ± 0.0014

row,Variant,self-cleavage kobs at 2500 uM GlcN6P [s⁻¹]
1,A15U A42U G43C C61G U69A,< 1e-05
2,C11G G35A G40A,< 1e-05
3,G32A A36U A64G,< 1e-05
4,A14C G26U G38A G44A U45A,< 1e-05
5,A15C A33G A36C A39C,< 1e-05
6,A12C U31C C61U C68A,< 1e-05
7,G9U A42C G62C C67G,< 1e-05
8,A15G A33U G37C,< 1e-05
9,A12C A39C G51U U55A,< 1e-05
10,A33G G35A G44U G59C C70U,< 1e-05
11,G13U A15U A48C,< 1e-05
12,C8G A15U G66A,< 1e-05
13,G32A C58U C68G,0.000103 ± 3.5e-05
14,G13U G29U G38A,< 1e-05
15,A15U U30G A42U G60U G62A C71U,< 1e-05
16,A33U U45G C70U C71U,< 1e-05
17,A33C G40U G44A,< 1e-05
18,G9U G37C G63U C67U,< 1e-05
19,A12G A15C,7.79e-05 ± 1e-05
20,G13A G40C G60A U65A,< 1e-05
21,A15G G32C C70G,< 1e-05

row,Variant,self-cleavage kobs at 2500 uM GlcN6P [s⁻¹]
1,U30C G40U G43A C68A C70A,< 1e-05
2,A14G A15G G29C A42C,< 1e-05
3,A14U A15U G40U,0.000122 ± 3.7e-05
4,C11U G35U C67A C70A,5.48e-05 ± 2.6e-05
5,C8G A15G U49A G59C U69A,< 1e-05
6,U30G G60A G62U A64U,< 1e-05
7,A12C A48U A53C G63A C68A,< 1e-05
8,G29C U30G G35A,< 1e-05
9,U31G U56C G62A,< 1e-05
10,C10U G35C G38A A52C G62U,< 1e-05
11,G21U G35U,< 1e-05
12,C11G A14C G60A,< 1e-05
13,A15C A36G G44U,< 1e-05
14,C11A C16U A53U,5.99e-05 ± 2.5e-05
15,C8U C10U G29C U49A,< 1e-05
16,C10U G29U A52U,< 1e-05
17,G7U G13C G44U C50G C67G,< 1e-05
18,C8U A42G A53C,< 1e-05
19,A33G A36G U65A,< 1e-05
20,C8A A33C G63A,< 1e-05
21,C8G G9U A14U A15U A64G C70U,< 1e-05

row,Variant,self-cleavage kobs at 2500 uM GlcN6P [s⁻¹]
1,A15C G32U G38C G59U,< 1e-05
2,A14C A42G G43U C70A,< 1e-05
3,G32U U47C G59U,< 1e-05
4,A14G A36G C58G,< 1e-05
5,C10U G32U A33C G38C G59C U69G,< 1e-05
6,U31C A48G G63C C67U,< 1e-05
7,U31G A52C C58G,< 1e-05
8,U31C G35A C71U,< 1e-05
9,A15C A52C U54C C67A,< 1e-05
10,A33G A39U G63U C67G,< 1e-05
11,C8A C16U G43C C50U,< 1e-05
12,A14U A39C G51A,< 1e-05
13,A12G C16U A39C U57G,< 1e-05
14,A12U U47G G62C,< 1e-05
15,C16G G32C G41A A52G,< 1e-05
16,G32A G37U C71U,< 1e-05
17,U31C G43U A53G C61U C67A,< 1e-05
18,C8A U30A U57G G59U G62U,< 1e-05

# Variants of: B1
# Assay: self-cleavage kobs at 10000 uM GlcN6P; higher = faster cleavage; RNA array
# Settings: with glucosamine-6-phosphate
# In short: as §1
row,Variant,self-cleavage kobs at 10000 uM GlcN6P [s⁻¹]
1,C10U A15C G37A A48U,< 1e-05
2,A33U G66A,5.28e-05 ± 6.4e-06
3,A12G A15C,0.000205 ± 2.2e-05
4,A14U A15U G40U,0.000149 ± 2.6e-05
5,A33G A36G U65A,< 1e-05
6,A33G A39U G63U C67G,< 1e-05
